Our source for the cytotoxicity call and growth inhibition call values is the antibiotic and cytotoxicity screens of Wong et al. (2023).

The other results are listed elsewhere or left out.

The first test concerns HepG2. The test is described as follows: cytotoxicity call (relative viability < 0.9). The note with it: 10 µM.
Regarding `CCCNC(=O)Nc1ccc2c(c1)OC[C@H](C)N(C(=O)C1CCOCC1)C[C@@H](C)[C@@H](OC)CN(C)C2=O`, the cytotoxicity call is “inactive”.

For `C[C@H](CO)N1C[C@H](C)[C@H](CN(C)C(=O)Cc2ccccn2)Oc2cc(-c3ccc(C(=O)N(C)C)cc3)ccc2S1(=O)=O`, the cytotoxicity call is “inactive”.

With `O=C(C[C@H]1CC[C@@H]2[C@H](COC[C@@H](O)CN2C(=O)c2ccccc2F)O1)N1CCN(c2ccccc2)CC1`, the cytotoxicity call is “inactive”.

With `C[C@H](CO)N1C[C@H](C)[C@H](CN(C)S(=O)(=O)c2cccs2)Oc2c(NS(=O)(=O)c3ccc(F)cc3)cccc2C1=O`, the cytotoxicity call was “inactive”.

As for `CC(NC(CCc1ccccc1)C(=O)O)C(=O)N1Cc2ccccc2CC1C(=O)O` (stereo not drawn), the cytotoxicity call is “inactive”.

For `O=C(Nc1ccc(-c2nc3ccc(NC(=O)c4ccc(NC(=O)c5cccc6ccccc56)cc4)cc3[nH]2)cc1)c1ccc(NC(=O)c2cccc3ccccc23)cc1`, the cytotoxicity call is “inactive”.

On to `O=C1CSC(/N=C/c2ccccc2O)=NN1`, for which the cytotoxicity call is “active”.

As for `O=C(C[C@H]1C=C[C@H](NS(=O)(=O)c2ccc(F)cc2)[C@@H](CO)O1)NCCN1CCCCC1`, the cytotoxicity call is “inactive”.

As for `Cc1cc(C(=O)Nc2cccc3c2O[C@@H](CN(C)Cc2ccc(C(=O)O)cc2)[C@@H](C)CN([C@H](C)CO)C3=O)n(C)n1`, the cytotoxicity call is “inactive”.

Take `C[C@@H]1CCCCO[C@@H](CN(C)Cc2ccc(C(F)(F)F)cc2)[C@H](C)CN([C@@H](C)CO)C(=O)c2cc(NC(=O)Nc3ccc(F)cc3)ccc2O1`: the cytotoxicity call was “inactive”.

In the case of `O=C(O)c1ccc2ccccc2c1`, the cytotoxicity call is “inactive”.

Regarding `Cc1ccc(S(=O)(=O)Nc2ccc3c(c2)C(=O)N([C@@H](C)CO)C[C@@H](C)[C@@H](CN(C)C(=O)NC(C)C)O3)cc1`, the cytotoxicity call was “inactive”.

As to `C[C@@H]1CN([C@H](C)CO)C(=O)c2cccc(NS(C)(=O)=O)c2O[C@H]1CN(C)Cc1ccc(C(F)(F)F)cc1`, the cytotoxicity call is “inactive”.

The next test has as its system S. aureus RN4220. The test is described as follows: growth inhibition call (relative growth <= 0.2). The note with it: 50 µM.
As to `O=C(C[C@@H]1CC[C@@H]2[C@H](COC[C@H](O)CN2S(=O)(=O)c2ccc(F)cc2)O1)NCc1ccc(Cl)c(Cl)c1`, the growth inhibition call is “inactive”.

Take `C[C@H]1CCCCO[C@H](CN(C)Cc2ccc(C(F)(F)F)cc2)[C@@H](C)CN([C@@H](C)CO)C(=O)c2cc(NS(=O)(=O)c3ccc(Cl)cc3)ccc2O1`: the growth inhibition call was “inactive”.

For `CO[C@@H]1CN(C)C(=O)c2ccc(NS(=O)(=O)c3cn(C)cn3)cc2OC[C@H](C)N(CC2CC2)C[C@@H]1C`, the growth inhibition call is “inactive”.

Turning to `Cc1noc(C)c1S(=O)(=O)N(C)C[C@H]1Oc2ccc(NC(=O)C3CCCCC3)cc2CC(=O)N([C@@H](C)CO)C[C@H]1C`, the growth inhibition call is “inactive”.

Consider `CC[C@@H](C)CCCCC(=O)N[C@@H](CCN)C(=O)N[C@H](C(=O)N[C@@H](CCN)C(=O)N[C@H]1CCNC(=O)[C@H]([C@@H](C)O)NC(=O)[C@H](CCN)NC(=O)[C@H](CCN)NC(=O)[C@H](CC(C)C)NC(=O)[C@@H](Cc2ccccc2)NC(=O)[C@@H](CCN)NC1=O)[C@@H](C)O`, for which the growth inhibition call is “inactive”.

As to `C[C@H]1CN([C@@H](C)CO)C(=O)Cc2cc(NC(=O)Nc3ccc4c(c3)OCO4)ccc2O[C@H]1CN(C)C(=O)Nc1ccc(C(F)(F)F)cc1`, the growth inhibition call is “inactive”.

Take `C[C@@H]1CN([C@H](C)CO)S(=O)(=O)c2ccc(-c3ccncc3)cc2O[C@@H]1CN(C)C(=O)c1cccc(F)c1`: the growth inhibition call was “inactive”.

As to `Cc1cccc(CN(C)C[C@@H]2Oc3ncc(-c4cc5ccccc5o4)cc3C(=O)N([C@H](C)CO)C[C@@H]2C)c1`, the growth inhibition call is “inactive”.

In the case of `O=C(C[C@@H]1C[C@@H]2c3cc(NC(=O)Nc4ccc(C(F)(F)F)cc4)ccc3O[C@@H]2[C@@H](CO)O1)NCCc1ccccc1`, the growth inhibition call was “inactive”.

Take `CCC(=O)N(C)C[C@H]1Oc2ncc(C#C[C@H](C)O)cc2C(=O)N([C@H](C)CO)C[C@@H]1C`: the growth inhibition call is “inactive”.

In the case of `C[C@H](CO)N1C[C@H](C)[C@@H](CN(C)S(=O)(=O)c2cn(C)cn2)Oc2ccc(NC(=O)Nc3ccccc3)cc2C1=O`, the growth inhibition call was “inactive”.

Regarding `C[C@@H]1CN([C@H](C)CO)S(=O)(=O)c2ccc(C#CCC3CCCC3)cc2O[C@@H]1CN(C)C(=O)CN(C)C`, the growth inhibition call is “inactive”.

`COc1ccc(NC(=O)N(C)C[C@H]2Oc3ccc(NC(=O)Cn4cnnn4)cc3CC(=O)N([C@H](C)CO)C[C@@H]2C)cc1`: the growth inhibition call is “inactive”.

Consider `Cc1ccc(S(=O)(=O)Nc2ccc3c(c2)C(=O)N([C@@H](C)CO)C[C@@H](C)[C@H](CN(C)CC2CCCCC2)OCCCC[C@@H](C)O3)cc1`, for which the growth inhibition call was “inactive”.

Regarding `COc1ccc(S(=O)(=O)N2C[C@@H](O)COC[C@H]3O[C@H](CC(=O)NCCCN4CCOCC4)CC[C@@H]32)cc1`, the growth inhibition call is “inactive”.
